# Some of the results follow.
# B1: PLU (Photorhabdus luminiscence) (protein)
# chain: HHHHHHENLYFQSSIVFASIDPRSNPLQTSSQNYVDIPGLKLDVSKYSNSPCLTALITLNIPTPYASGNNFPGGNFAIVTDQGEQLAYGGFTYSSKIPENSGRMPFTLVARYSLASNVSTIKAQWSNIRGSTVHIDSYASISAVIQCNQLV
# What was measured:
# Test in all cases: glycan array binding signal (z-score within array); higher = stronger binding
# Conditions in all cases: glycan notation: IUPAC condensed, linker removed
# Fuc(a1-2)Gal = molecular target: Fuc(a1-2)Gal
# How it was run: (§1)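 Arrays were curated from the Consortium for Functional Glycomics database, 3228 in total, and kept only where the protein sequence was available. Binding is expressed as a within-array Z-score. This score was averaged across arrays of the same protein sequence at different concentrations or buffers and across linkers, and negative values can be read as non-binding.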
# Fuc(a1-2)Gal(b1-3)GalNAc = molecular target: Fuc(a1-2)Gal(b1-3)GalNAc
# How it was run: as §1
# [1] = molecular target: Fuc(a1-2)Gal(b1-3)GalNAc(a1-3)[Fuc(a1-2)]Gal(b1-4)Glc
# How it was run: as §1
# [2] = molecular target: Fuc(a1-2)Gal(b1-3)GalNAc(a1-3)[Fuc(a1-2)]Gal(b1-4)GlcNAc
# How it was run: as §1
# [3] = molecular target: Fuc(a1-2)Gal(b1-3)GalNAc(b1-3)Gal
# How it was run: as §1
# [4] = molecular target: Fuc(a1-2)Gal(b1-3)GalNAc(b1-3)Gal(a1-4)Gal(b1-4)Glc
# How it was run: as §1
# [5] = molecular target: Fuc(a1-2)Gal(b1-3)GalNAc(b1-4)[Neu5Ac(a2-3)]Gal(b1-4)Glc
# How it was run: as §1
# Fuc(a1-2)Gal(b1-3)GlcNAc = molecular target: Fuc(a1-2)Gal(b1-3)GlcNAc
# How it was run: as §1
# [6] = molecular target: Fuc(a1-2)Gal(b1-3)GlcNAc(b1-2)Man(a1-3)[Fuc(a1-2)Gal(b1-3)GlcNAc(b1-2)Man(a1-6)]Man(b1-4)GlcNAc(b1-4)GlcNAc
# How it was run: as §1
# [7] = molecular target: Fuc(a1-2)Gal(b1-3)GlcNAc(b1-2)Man(a1-3)[Fuc(a1-2)Gal(b1-3)GlcNAc(b1-2)Man(a1-6)]Man(b1-4)GlcNAc(b1-4)[Fuc(a1-6)]GlcNAc
# How it was run: as §1
# [8] = molecular target: Fuc(a1-2)Gal(b1-3)GlcNAc(b1-3)Gal(b1-4)Glc
# How it was run: as §1
# [9] = molecular target: Fuc(a1-2)Gal(b1-3)GlcNAc(b1-3)GalNAc
# How it was run: as §1
# [10] = molecular target: Fuc(a1-2)Gal(b1-3)GlcNAc(b1-3)[Fuc(a1-2)Gal(b1-3)GlcNAc(b1-6)]GalNAc
# How it was run: as §1
# [11] = molecular target: Fuc(a1-2)Gal(b1-3)GlcNAc(b1-3)[Gal(b1-4)GlcNAc(b1-6)]Gal(b1-4)Glc
# How it was run: as §1
# [12] = molecular target: Fuc(a1-2)Gal(b1-3)GlcNAc(b1-3)[Neu5Ac(a2-6)Gal(b1-4)GlcNAc(b1-6)]Gal(b1-4)Glc
# How it was run: as §1
# [13] = molecular target: Fuc(a1-2)Gal(b1-3)GlcNAc6S
# How it was run: as §1
# [14] = molecular target: Fuc(a1-2)Gal(b1-3)[Fuc(a1-4)]GlcNAc
# How it was run: as §1
# [15] = molecular target: Fuc(a1-2)Gal(b1-3)[Fuc(a1-4)]GlcNAc(b1-2)Man(a1-3)[Fuc(a1-2)Gal(b1-3)[Fuc(a1-4)]GlcNAc(b1-2)Man(a1-3)]Man(b1-4)GlcNAc(b1-4)GlcNAc
# How it was run: as §1
# [16] = molecular target: Fuc(a1-2)Gal(b1-3)[Fuc(a1-4)]GlcNAc(b1-2)Man(a1-3)[Fuc(a1-2)Gal(b1-3)[Fuc(a1-4)]GlcNAc(b1-2)Man(a1-6)]Man(b1-4)GlcNAc(b1-4)[Fuc(a1-6)]GlcNAc(b1-4)[Fuc(a1-6)]GlcNAc
# How it was run: as §1
# [17] = molecular target: Fuc(a1-2)Gal(b1-3)[Fuc(a1-4)]GlcNAc(b1-3)[Fuc(a1-3)[Gal(b1-4)]GlcNAc(b1-6)]Gal(b1-4)Glc
# How it was run: as §1
# [18] = molecular target: Fuc(a1-2)Gal(b1-3)[Fuc(a1-4)]GlcNAc(b1-3)[Gal(b1-4)GlcNAc(b1-6)]Gal(b1-4)Glc
# How it was run: as §1
# Fuc(a1-2)Gal(b1-4)Glc = molecular target: Fuc(a1-2)Gal(b1-4)Glc
# How it was run: as §1
# Fuc(a1-2)Gal(b1-4)Glc6S = molecular target: Fuc(a1-2)Gal(b1-4)Glc6S
# How it was run: as §1
# Fuc(a1-2)Gal(b1-4)GlcNAc = molecular target: Fuc(a1-2)Gal(b1-4)GlcNAc
# How it was run: as §1
# [19] = molecular target: Fuc(a1-2)Gal(b1-4)GlcNAc(b1-2)Man
# How it was run: as §1
# [20] = molecular target: Fuc(a1-2)Gal(b1-4)GlcNAc(b1-2)Man(a1-3)[Fuc(a1-2)Gal(b1-4)GlcNAc(b1-2)Man(a1-6)]Man(b1-4)GlcNAc(b1-4)GlcNAc
# How it was run: as §1
# [21] = molecular target: Fuc(a1-2)Gal(b1-4)GlcNAc(b1-2)Man(a1-3)[Fuc(a1-2)Gal(b1-4)GlcNAc(b1-2)Man(a1-6)]Man(b1-4)GlcNAc(b1-4)[Fuc(a1-6)]GlcNAc
# How it was run: as §1
# [22] = molecular target: Fuc(a1-2)Gal(b1-4)GlcNAc(b1-2)[Fuc(a1-2)Gal(b1-4)GlcNAc(b1-4)]Man(a1-3)[Fuc(a1-2)Gal(b1-4)GlcNAc(b1-2)Man(a1-6)]Man(b1-4)GlcNAc(b1-4)GlcNAc
# How it was run: as §1
# [23] = molecular target: Fuc(a1-2)Gal(b1-4)GlcNAc(b1-3)Gal(b1-4)GlcNAc
# How it was run: as §1
# [24] = molecular target: Fuc(a1-2)Gal(b1-4)GlcNAc(b1-3)Gal(b1-4)GlcNAc(b1-2)Man(a1-3)[Fuc(a1-2)Gal(b1-4)GlcNAc(b1-3)Gal(b1-4)GlcNAc(b1-2)Man(a1-6)]Man(b1-4)GlcNAc(b1-4)GlcNAc
# How it was run: as §1
binder,measurement,setting,value
B1,glycan array binding signal (z-score),Fuc(a1-2)Gal,-0.16
same,glycan array binding signal (z-score),Fuc(a1-2)Gal(b1-3)GalNAc,-0.206
same,glycan array binding signal (z-score),[1],0.208
same,glycan array binding signal (z-score),[2],0.604
same,glycan array binding signal (z-score),[3],-0.305
same,glycan array binding signal (z-score),[4],-0.183
same,glycan array binding signal (z-score),[5],-0.274
same,glycan array binding signal (z-score),Fuc(a1-2)Gal(b1-3)GlcNAc,0.026
same,glycan array binding signal (z-score),[6],0.189
same,glycan array binding signal (z-score),[7],-0.225
same,glycan array binding signal (z-score),[8],-0.211
same,glycan array binding signal (z-score),[9],-0.233
same,glycan array binding signal (z-score),[10],-0.17
same,glycan array binding signal (z-score),[11],-0.284
same,glycan array binding signal (z-score),[12],-0.358
same,glycan array binding signal (z-score),[13],0.008
same,glycan array binding signal (z-score),[14],5.25
same,glycan array binding signal (z-score),[15],-0.247
same,glycan array binding signal (z-score),[16],1.1
same,glycan array binding signal (z-score),[17],0.083
same,glycan array binding signal (z-score),[18],1.53
same,glycan array binding signal (z-score),Fuc(a1-2)Gal(b1-4)Glc,1.95
same,glycan array binding signal (z-score),Fuc(a1-2)Gal(b1-4)Glc6S,-0.189
same,glycan array binding signal (z-score),Fuc(a1-2)Gal(b1-4)GlcNAc,2.67
same,glycan array binding signal (z-score),[19],-0.261
same,glycan array binding signal (z-score),[20],-0.141
same,glycan array binding signal (z-score),[21],-0.136
same,glycan array binding signal (z-score),[22],-0.106
same,glycan array binding signal (z-score),[23],1.48
same,glycan array binding signal (z-score),[24],2.78

# Reference: the supplement of paper PMC8728848
